# In the supplement of paper PMC9135407:
# “And” between values parts separate entries of the source, which are not always exact repeats. Identical values can stand only once. Counter-ions that a name gives are not always drawn. The campaign covered roughly 5,800 compounds. About 620 (11%) showed activity.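 How the source made its calls: active = score above a cut-off or among the top three wells of a plate; in these data no inactive exceeds 0.85.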 This is a selection; strong and weak results do not stand in their true shares.
# Tested on: primary human hepatic stellate cells (donor 1)
# Assay: scaled lipid accumulation score (0 = DMSO-like, 1 = nortriptyline-like); higher = stronger HSC inactivation (lipid re-accumulation), active = hit call of the paper
# Details: 48 h
# [1] = library stock concentration: 10 mM
# [2] = library stock concentration: 3.33 mM
# [3] = library stock concentration: 2 mM
# [4] = library stock concentration: 80 uM
# [5] = library stock concentration: 400 uM
smiles,measurement,setting,value
COc1cc(C(O)CO)ccc1OS(=O)(=O)O (stereo not drawn) [MHPG sulfate potassium],scaled lipid accumulation score,[1],inactive: ≤ -0.07
Fc1ccc([C@@H]2CCNC[C@H]2COc2ccc3c(c2)OCO3)cc1.O=C(O)/C=C\C(=O)O [Paroxetine],scaled lipid accumulation score,[1],active: 1.02
CC(C)n1nnc2cc(C(=O)O)ccc21,scaled lipid accumulation score,[1],inactive: 0.001
COC(=O)c1c(C)[nH]c(C)c1C(=O)c1ccccc1Cc1ccccc1,scaled lipid accumulation score,[1],inactive: 0.13 and inactive: 0.001
CCCC1O[C@@H]2C[C@H]3[C@@H]4CCC5=CC(=O)C=C[C@]5(C)[C@H]4[C@@H](O)C[C@]3(C)[C@]2(C(=O)CO)O1 (stereo partly drawn) [Budesonide],scaled lipid accumulation score,,inactive: 0.167
same,scaled lipid accumulation score,[2],inactive: ≤ 0
same,scaled lipid accumulation score,[1],inactive: ≤ 0 and inactive: ≤ -0.001
CCCC1O[C@@H]2C[C@H]3[C@@H]4CCC5=CC(=O)C=C[C@]5(C)[C@H]4[C@@H](O)C[C@]3(C)[C@]2(C(=O)CO)O1 (stereo partly drawn),scaled lipid accumulation score,[1],inactive: ≤ 0
"NCCC1CCCC(CCN)N1 (stereo not drawn) [MDL 26,630 trihydrochloride]",scaled lipid accumulation score,[1],inactive: ≤ -0.055
CCOC(=O)[C@H](CCc1ccccc1)N[C@H]1CCCN2CCC[C@@H](C(=O)O)N2C1=O [Cilazapril Monohydrate],scaled lipid accumulation score,[2],inactive: ≤ 0
same,scaled lipid accumulation score,[1],inactive: ≤ 0
COc1cc(C(C)=O)ccc1OCCCN1CCC(c2noc3cc(F)ccc23)CC1 [Iloperidone],scaled lipid accumulation score,[2],inactive: 0.045
same,scaled lipid accumulation score,[1],inactive: 0.477
CC(C)c1ccc2c(c1)CC[C@H]1[C@](C)(CN)CCC[C@]21C.Cl [Leelamine (hydrochloride)],scaled lipid accumulation score,library stock concentration: 1 mM,active: 0.297
CN1[C@@H]2CC[C@H]1CC(OC(=O)c1c[nH]c3ccccc13)C2 (stereo partly drawn) [3-Tropanyl-indole-3-carboxylate hydrochloride],scaled lipid accumulation score,[1],inactive: 0.561
CN1CCN(Cc2ccc(-c3cnc4[nH]cc(-c5ccc6[nH]ccc6c5)c4c3)cc2)CC1,scaled lipid accumulation score,[3],active: 1.3
CC[C@]1(O)C[C@H]2CN(CCc3c([nH]c4ccccc34)[C@@](C(=O)OC)(c3cc4c(cc3OC)N(C)[C@H]3[C@@](O)(C(=O)OC)[C@H](OC(C)=O)[C@]5(CC)C=CCN6CC[C@]43[C@@H]65)C2)C1.O=S(=O)(O)O [Vinblastine sulfate],scaled lipid accumulation score,[1],active: 1.67
Nc1[nH]nc2nnc(-c3c(-c4ccccc4)nn4ccccc34)cc12,scaled lipid accumulation score,[4],inactive: 0.061
same,scaled lipid accumulation score,[5],inactive: 0.076
same,scaled lipid accumulation score,[3],inactive: ≤ -0.009
same,scaled lipid accumulation score,[2],inactive: ≤ 0
same,scaled lipid accumulation score,[1],inactive: ≤ -0.001 and inactive: 0.026
O=C1CN(/N=C/c2ccc(-c3ccc([N+](=O)[O-])cc3)o2)C(=O)N1 [Dantrolene sodium salt],scaled lipid accumulation score,,inactive: 0.207
"O=C1CN(/N=C/c2ccc(-c3ccc([N+](=O)[O-])cc3)o2)C(=O)N1 [Dantrolene, sodium salt]",scaled lipid accumulation score,[1],inactive: ≤ 0
O=C1CN(/N=C/c2ccc(-c3ccc([N+](=O)[O-])cc3)o2)C(=O)N1 [Dantrolene?Sodium],scaled lipid accumulation score,[1],inactive: ≤ 0
O=C1CN(/N=C/c2ccc(-c3ccc([N+](=O)[O-])cc3)o2)C(=O)N1 [Dantrolene sodium],scaled lipid accumulation score,library stock concentration: 5.9 mM,inactive: ≤ 0
same,scaled lipid accumulation score,[1],inactive: ≤ -0.07
CC(C)OC(=O)CCC/C=C\C[C@@H]1[C@@H](/C=C/[C@@H](O)COc2cccc(C(F)(F)F)c2)[C@H](O)C[C@@H]1O,scaled lipid accumulation score,[1],inactive: ≤ 0
CCOC(=O)n1ccn(C)c1=S [Carbimazole],scaled lipid accumulation score,,inactive: 0.035
same,scaled lipid accumulation score,[2],inactive: ≤ 0
same,scaled lipid accumulation score,[1],inactive: 0.044 and inactive: ≤ -0.027
COc1cc(O)c2c(c1)C(=O)c1cc(C)cc(O)c1C2=O [Rheochrysidin],scaled lipid accumulation score,[2],inactive: 0.035
same,scaled lipid accumulation score,[1],inactive: ≤ 0
CN1CCN2c3ccccc3Cc3ccccc3C2C1.Cl (stereo not drawn) [Mianserin hydrochloride],scaled lipid accumulation score,[1],active: 0.869
COc1cc(N2CCC(N)CC2)ccc1Nc1ncc(Cl)c(-c2c[nH]c3ccccc23)n1,scaled lipid accumulation score,[2],inactive: 0.146
same,scaled lipid accumulation score,[1],inactive: 0.238
CC1(O)CCC(C(C)(C)O)CC1 (stereo not drawn),scaled lipid accumulation score,[1],inactive: ≤ 0
CC1(C)S[C@@H]2[C@H](NC(=O)[C@H](C(=O)O)c3ccsc3)C(=O)N2[C@H]1C(=O)O,scaled lipid accumulation score,[1],inactive: ≤ 0
CC1(C)S[C@@H]2[C@H](NC(=O)[C@H](C(=O)O)c3ccsc3)C(=O)N2[C@H]1C(=O)O [Ticarcillin sodium],scaled lipid accumulation score,,inactive: ≤ 0
same,scaled lipid accumulation score,[2],inactive: ≤ 0
same,scaled lipid accumulation score,[1],inactive: ≤ -0.001
COc1c/c(=C2\C=c3ccccc3=N2)[nH]/c1=C\c1[nH]c(C)cc1C [Obatoclax Mesylate (GX15-070)],scaled lipid accumulation score,[2],inactive: 0.602
same,scaled lipid accumulation score,[1],inactive: 0.617
Cc1cc(NS(=O)(=O)c2ccc(N)cc2)no1 [Sulfamethoxazole],scaled lipid accumulation score,,inactive: 0.056
same,scaled lipid accumulation score,[2],inactive: ≤ 0
same,scaled lipid accumulation score,library stock concentration: 7.9 mM,inactive: ≤ 0
same,scaled lipid accumulation score,[1],inactive: ≤ 0 and inactive: 0.06
CN[C@@H]1[C@@H](O)[C@@H](O[C@@H]2[C@@H](O)[C@H](O[C@H]3OC(CN)=CC[C@H]3N)[C@@H](N)C[C@H]2N)OC[C@]1(C)O [Sisomicin sulfate],scaled lipid accumulation score,,inactive: 0.028
same,scaled lipid accumulation score,[1],inactive: ≤ 0
O=C(c1ccc2c(c1)OCCO2)N1CCCCC1,scaled lipid accumulation score,[1],inactive: ≤ -0.07
COc1cc(C(=O)OCCCN2CCCN(CCCOC(=O)c3cc(OC)c(OC)c(OC)c3)CC2)cc(OC)c1OC.Cl.Cl [Dilazep dihydrochloride],scaled lipid accumulation score,[1],active: 1.06
OCCN1CCN(CCCN2c3ccccc3Sc3ccc(Cl)cc32)CC1,scaled lipid accumulation score,[1],active: 0.962
Cc1nc2sccn2c(=O)c1CCN1CCC(=C(c2ccccc2)c2ccc(F)cc2)CC1,scaled lipid accumulation score,[4],inactive: ≤ -0.001
same,scaled lipid accumulation score,[5],inactive: ≤ -0.001
same,scaled lipid accumulation score,[3],inactive: ≤ -0.001
same,scaled lipid accumulation score,[1],inactive: 0.463 and inactive: 0.19
CC(C)(C)C(=O)C(Oc1ccc(Cl)cc1)n1ccnc1 (stereo not drawn) [Climbazole],scaled lipid accumulation score,[2],inactive: ≤ 0
same,scaled lipid accumulation score,library stock concentration: 6.8 mM,inactive: ≤ 0
same,scaled lipid accumulation score,[1],inactive: ≤ -0.001
O=C(NCCCNc1nc(Nc2cccc(NC(=O)N3CCCC3)c2)ncc1I)c1cccs1,scaled lipid accumulation score,[1],active: 1.2
Cc1ccccc1OCC(O)CO (stereo not drawn) [Mephenesin],scaled lipid accumulation score,,inactive: 0.035
same,scaled lipid accumulation score,[1],inactive: ≤ 0
same,scaled lipid accumulation score,library stock concentration: 11 mM,inactive: ≤ 0
